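Compound exposure: 48 hours, 5 concentrations, 96-well plates. The concentration for 50% growth inhibition is given as GI50. At the TGI there is no net growth.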

The assay has as its system NCI-H322M lung. In words: NCI tumour cell line growth inhibition, 48 h.
With `COc1cc2cc(Oc3ccc(NC(=O)c4ccc(Cl)c(Cl)c4)cc3)c(C)nc2cc1OC`, the GI50 is over 100 µM and the TGI was over 100 µM.
For the compound `COC(=O)C(Cc1c[nH]c2ccccc12)N=C1Nc2ccncc2S(=O)(=O)N1c1cccc(OC(C)C)c1` (stereo not given), the TGI was over 100 µM.
Consider `CC(=O)O[C@@H]1C[C@@]2(C)[C@@H]3CC=C4[C@@H](C[C@H](O)C(=O)C4(C)C)[C@]3(C)C(=O)C[C@]2(C)[C@H]1[C@@](C)(O)C(=O)/C=C/C(C)(C)OC(C)=O`, for which the TGI is over 100 µM.
`Nc1ccc(Nc2cc(=O)[nH]c(=O)[nH]2)cc1Cl` yielded a TGI of over 100 µM.
The same measure, in the same setting: for `CSc1c(C#N)c(N)n(-c2ccc(Cl)cc2)c(=O)c1C#N` the value was over 100 µM.
Consider `CCCn1c(=O)c(N2CCN(c3ccccc3)CC2)nc2sc3ccccc3c21`, for which the TGI was over 100 µM.
Take `C[C@@H]1Cc2cc(O)ccc2[C@H]2CC[C@]3(C)/C(=C/COCCN(C)C)CC[C@H]3[C@H]12` (tested in a mixture with another compound): the GI50 is 0.322 µM and the TGI was 0.937 µM.
Consider `COc1cc(C(=O)Nc2cc(O)c(CC=C(C)C)c(O)c2)cc2c1O[C@]1(C)CC[C@@H](O)C(C)(C)[C@H]1C2`, for which the GI50 was 5.61 µM and the TGI came out at 38.6 µM.
`NC(Cc1ccc(S(=O)(=O)O)cc1)C(=O)NC(Cc1ccc(S(=O)(=O)O)cc1)C(=O)NC(Cc1ccc(S(=O)(=O)O)cc1)C(=O)NC(Cc1ccc(S(=O)(=O)O)cc1)C(=O)O` (stereo not given): the TGI is over 100 µM.
Consider `CSc1ccc(C2=NN(C(C)=O)C(c3ccc(-c4ccc(Cl)cc4)o3)C2)cc1` (stereo not given), for which the GI50 was 21.9 µM and the TGI is 94.6 µM.
In the case of `C[C@@H]1O[C@@H](O[C@@H]2[C@@H](O)[C@H](OCCc3ccc(O)c(O)c3)O[C@H](CO)[C@H]2OC(=O)/C=C/c2ccc(O)c(O)c2)[C@H](O)[C@H](OC2OC[C@](O)(CO)[C@H]2O)[C@H]1O` (stereo not given in full), the GI50 is 84.8 µM and the TGI was over 100 µM.
In turn, `C=C1CC[C@@H](C)[C@](C)(CCc2ccoc2)C/C=C\C=C/1C(=O)O` showed a TGI of over 100 µM.
The compound `CC[C@@]1(O)C(=O)OCc2c1cc1n(c2=O)Cc2c-1nc1ccccc1c2/C=N\NC(=O)C(N)CCSC` (stereo not given in full) had a TGI of over 43.4 µM.
In the case of `ClC1=C(Cl)C(Cl)(Cl)c2c3c(c4c(c21)C(Cl)(Cl)C(Cl)=C4Cl)C(Cl)(Cl)C(Cl)=C3Cl`, the TGI is over 100 µM.
As for `COc1ccc(/C=C(\C)[N+](=O)[O-])cc1OC`, the GI50 is 7.83 µM and the TGI turned out to be 21.4 µM.
As for `COC(=O)c1cc(-c2ccc(OC)c(OC)c2)[nH]c1N/N=C/c1c(Cl)cccc1Cl`, the GI50 is 3.09 µM and the TGI was over 75.2 µM.
For `N#C/C(C(=S)NCc1ccccc1)=C(/N)N1CCCC1`, the TGI is over 100 µM.
Turning to `COc1ccc(C(=O)/C=C/c2ccc(OCC#N)cc2)cc1`, the TGI is over 100 µM.
In the case of `CCOc1ccc(NC(=O)CCc2nnc(SC)o2)cc1`, the TGI was over 100 µM.
On to `COc1cc2ncc3c(nc4sccn43)c2cc1OC`, for which the GI50 was 13.8 µM and the TGI worked out at 41 µM.
As for `Cc1ccccc1C(=O)C1CCCCC1O` (stereo not given), the TGI was over 100 µM.
Take `c1cc(N2CCN(c3ccc(C4=NCCCN4)cc3)CC2)ccc1C1=NCCCN1`: the GI50 is over 41.9 µM and the TGI was over 95.6 µM.
As to `COc1ccc(Nc2ccnc(N3CCN(c4ccnc5cc(Cl)ccc45)CC3)n2)cc1`, the GI50 was 2.46 µM and the TGI is over 44.4 µM.
On to `CCN(CC)C1Oc2cc3c(cc2C(c2cccc(OC)c2OC)C1C)OCO3` (stereo not given), for which the TGI was determined as 64.4 µM.
`Cc1cc(NS(=O)(=O)c2ccc(NC(=O)c3cccc4c(Nc5ccc(S(N)(=O)=O)cc5)c5ccccc5nc34)cc2)no1` gave a TGI of over 100 µM.
Take `COc1ccc2c(c1)C(=O)c1c-2c(OCCN(C)C)nc2ccccc12`: the GI50 was 2.46 µM and the TGI was found to be 9.86 µM.
`O=C1CCCC/C1=C\c1ccc(Cl)c(Cl)c1` returned a TGI of 66.3 µM.
Compound `CC(C)(C)c1cc2nc(c1)C(C(F)(F)F)(C(F)(F)F)OB(Br)OC2(C(F)(F)F)C(F)(F)F` registered a TGI of 4.75 µM.
In turn, `CCOC(=O)C1CCCCN1C(=O)Cc1c[nH]c2ccccc12` (stereo not given) registered a TGI of over 100 µM.
Take `Nc1n[nH]c2ccc([C@@H]3Nc4cc5c(cc4[C@H]4C6CCC(C6)[C@@H]34)C(=O)NC5)cc12` (stereo not given in full): the GI50 was 0.984 µM and the TGI was over 100 µM.
`O=C1NC2CCCCCC2C12CCCCC2` (stereo not given) registered a TGI of over 100 µM.
As to `O=C1Cc2c([nH]c3ccc(C(=O)O)cc23)-c2ccccc2N1`, the TGI was over 100 µM.
The compound `Nc1nc2c(C(=O)O)c3ccc([N+](=O)[O-])cc3c(=O)n2c2ccccc12` came in with a TGI of over 100 µM.
In turn, `CCOC(=O)c1c[nH]c2ccc3c(c2c1=O)S(=O)(=O)CC3` (tested in a mixture with another compound) yielded a TGI of over 100 µM.
In the case of `CN1CCc2nc3sc(C(N)=O)c(N)c3c(-c3cccs3)c2C1`, the GI50 was 3.85 µM and the TGI came to 88.5 µM.
Consider `Oc1cccc2c1NCCC2`, for which the GI50 is 2.8 µM and the TGI is over 100 µM.
On to `COc1cccc(/N=N/C(=NNC(=O)c2ccc(C)cc2)c2ccc(N(C)C)cc2)c1`, for which the TGI is over 100 µM.
`CC(C)/C(Cl)=N/OC(=O)Nc1ccc(Cl)c(Cl)c1`: the TGI is 30.1 µM.
Compound `CCCC(S(=O)(=O)c1ccccc1)S(=O)(=O)c1ccccc1` returned a TGI of over 100 µM.
Consider `CC(C)C[C@H](NC(=O)CCn1ccc2ccccc2c1=O)B(O)O`, for which the GI50 was 76.8 µM and the TGI is over 100 µM.
For `O=C(Cc1nc2ccccc2o1)C(=O)Nc1cccc(C(F)(F)F)c1`, the TGI was over 100 µM.
In turn, `COc1ccc(OC(=O)CC2Cc3cc(OC)c(OC)c(OC)c3-c3ccc(SC)c(=O)cc32)cc1` (stereo not given) gave a TGI of over 100 µM.
`CCCCCCCCCCCC[N+](CCCCCCCCCCCC)=C1SCCS1` showed a TGI of 31 µM.
`CN(C)CCc1c2c(nc3ccccc13)C(=O)c1cccnc1C2=O` displayed a TGI of 2.55 µM.
As to `C[n+]1c2ccccc2nc2c(N)cc(N)cc21`, the GI50 is 3.89 µM and the TGI was found to be 61.7 µM.
As to `CCN(CC)c1nnc(CCCCCCCCc2nnc(N(CC)CC)o2)o1`, the TGI is over 100 µM.
For the compound `N#CC1(C#N)C(c2ccccc2)C=CC12OCCCO2` (stereo not given), the TGI is over 100 µM.
Take `COc1ccc2c(-c3ccnc(Nc4cccc(OC(F)(F)F)c4)n3)cnn2n1`: the GI50 is 3.95 µM and the TGI is over 16.7 µM.

The values above are taken from PubChem BioAssay (NCI).
